To fix the notation:
B1: OR4K15 (parent)
chain: GUUAACGGUCAUAGGCCAUGGAAACUAGGAGCACCAUUUCGCUGCCAGUGAAGAAAUGAACAAAGAAAAUCUGGGCCAGGCAGGCAUCAAAAGAAAUAGUCUUGCGCUCAACCAGAAAGUCUGUAAUCAUUUUAAGGGUA

These results are taken from the RNAGym collection of RNA variant scans (doi:10.7554/elife.90254).

The source gives no read counts; variants with many changes may rest on few reads.

The series covers variants of B1. Kind of series: self-cleavage, relative activity (ratio to wild type); higher = more cleavage; in vitro, sequencing; the parent is a self-cleaving ribozyme.
A33U U37C A82G A89U U100C A116U: the self-cleavage came out at 0.15. Consider A36G A94U U102A, for which the self-cleavage amounted to 0.97. Turning to U37C A52G G58A A64G A91G, the self-cleavage turned out to be 0.46. For C35U A52G A117G A129G, the self-cleavage was determined as 0.56. For A36G U100C U108C A117G A140G, the self-cleavage amounted to 0.01. A33U A56G A118G A126G: the self-cleavage came to 0.35. For the variant A33U U43G A69G, the self-cleavage was found to be 1.45. With A33G A116G U131C the figure was 0.14. For C35U G75A A134G, the self-cleavage is 0.03. Take A36G A90G U120C: the self-cleavage turned out to be 0.31. Consider A36U A47U U139C, for which the self-cleavage stood at 0.65. The value for A33U C34A U103C U108C U139C was 0.01. A33U U38C U70G A86U A126G U130C: the self-cleavage came to 1.29. On to A33U A68G U131C, for which the self-cleavage is 0.89. The value for A33G A116U U120C U131C U132C was 0.05; that for C35U A51G A62G U100A was 0.65; that for A33G A89G A118C U120C was 0.3.

On to A33U A60G A114U, for which the self-cleavage was 0.07. On to A33G U49A G50U, for which the self-cleavage was found to be 0.17. On to A33G A117G G136A, for which the self-cleavage worked out at 1.08.

For A36G A62G A66G A91G, the self-cleavage was 0.91. As to A33G U39C A111G C113U, the self-cleavage is 0.02. On to A36G U43C U103C, for which the self-cleavage came out at 0.81. With A36U A52G A111U, the self-cleavage was 0.05. On to A33G A82G A89G, for which the self-cleavage was found to be 0. For the variant A36U C105U U132C, the self-cleavage worked out at 0.07. Consider A33G A90U U131C, for which the self-cleavage was determined as 0.9. For A33U A47G A51G, the self-cleavage was 0.78. A36G A52U A66U A110U U127C: the self-cleavage was found to be 0.48.

In the case of A33G A64G A78G U87C A91G, the self-cleavage amounted to 0.05.

As to A36G A59G A82G A90G U122G, the self-cleavage was found to be 0.2. Regarding A33G A126U U139C, the self-cleavage worked out at 0.68.

Turning to A36G U39C A63G A91G, the self-cleavage amounted to 1.18. With C34G U72A A90G A96G, the self-cleavage amounted to 0.13. U37C A52U A60G U122A: the self-cleavage is 0.34. Turning to A36G U127A U130C U131C, the self-cleavage is 2.67.

On to A33G C40U A56G A134G, for which the self-cleavage was found to be 0.14. On to A33G A66U A68G, for which the self-cleavage was determined as 0.2. As to A33U U39C A78G U108C, the self-cleavage was 0. For A36G A67G A90G U124C, the self-cleavage was 1.18. For the variant A36U A51G A68G, the self-cleavage is 1.95.

Take U37C A52C A94G G136A: the self-cleavage was 1.81. Consider C35U U57A G58U, for which the self-cleavage worked out at 0.46. On to U37C A55G A66G, for which the self-cleavage was found to be 1.54. Turning to A36G U38A A78G U100C, the self-cleavage amounted to 0.1. In the case of U37C A55G A116G U132C, the self-cleavage turned out to be 0.62.

Take A33G A78U A110U A129G U132C: the self-cleavage came to 0.04. A33G A82U U100C U127C: the self-cleavage was determined as 0.13. For the variant U37A U39C A59U A90G U103C, the self-cleavage came to 0.25. Turning to A33U A89G A95G A118G, the self-cleavage was 1.95. For U37C A63G A92G A96G, the self-cleavage is 0.54. Take A36U A54G A90G U132A: the self-cleavage worked out at 0.89. For the variant C35A A51G A68G A94G A117G, the self-cleavage was 1.7. As to A33G A69G U87C A140G, the self-cleavage stood at 1.2. With A36U U43A A59G A60G, the self-cleavage came out at 1.37.

With A33G A82G U103C, the self-cleavage was 1.47. With A36G U37C A56G G137A U139C the figure was 0.28; with A36G C46A A94G, 1.51; with A33G U87C U102C, 0.9. Consider U37C A59G A62G A86G, for which the self-cleavage came out at 1.65. As to A33G A62G U70C A78G, the self-cleavage was found to be 0.14.

For A36U A78U C88A A116G U122C, the self-cleavage worked out at 0.06.

Consider A36U A55G U103A, for which the self-cleavage was 0.6. Regarding A36U A86G U132C, the self-cleavage came out at 0.8.

Regarding A33G G41A A51U A125U, the self-cleavage stood at 1.06. With A33G A66G A94G U127A A140G the figure was 1.81; with U37C A54G C113A A129G U131C, 0; with U37C A56G U87G U124C, 0.26. Turning to A33G A95G A140G, the self-cleavage is 1.1. Take A33G A56G A96G: the self-cleavage was found to be 1.35.

On to U37C A56G A59G A60G U108A, for which the self-cleavage came out at 0. A33U U39C A51C A69G C71G: the self-cleavage turned out to be 0.25. As to A36G A47U A59U U102C A116G, the self-cleavage worked out at 0.75. On to A36G U70C A89G, for which the self-cleavage was 1.21. For U37C A55U U70C, the self-cleavage worked out at 1.04.

Take A36G A63U A94U: the self-cleavage stood at 2.35. Regarding A33G U72C A118U U127C, the self-cleavage is 0.02.

A36G A82G A86U: the self-cleavage stood at 1.41. The value for A36G A47G A60G A67G A89C was 0.57; that for A33G A63G A118U A140U was 0.25; that for C35U U43C A126G was 0.52.

With U37C A55G A118G, the self-cleavage was 1.33.

For A36G A59G G79A A89G, the self-cleavage was 0.15. For A33G A62G U132C, the self-cleavage worked out at 0.56.
